Laboratory results: PubChem BioAssay AID485344 (National Center for Advancing Translational Sciences (NCATS), 2010)
The whole screen tested about 340,000 compounds, of which about 6,900 (2%) were called active. No stated cut-off is given here; in the data, active means inhibition above about 30%; inactive means below that, where a call was filed. This is a selection; strong and weak results do not stand in their true shares. Where no call is shown, the source filed none.

molecular target: D(2) dopamine receptor (Homo sapiens) (UniProt P14416); assay: HTS Assay for Allosteric Antagonists of the Human D2 Dopamine Receptor: Primary Screen for Antagonists; details: HEK293 TREx D2 cells, calcium flux, dopamine EC80; at 10 µM; stronger effect = higher value; further: 0% is about no effect
Sequence of UniProt P14416 (P14416 whole entry, looked up): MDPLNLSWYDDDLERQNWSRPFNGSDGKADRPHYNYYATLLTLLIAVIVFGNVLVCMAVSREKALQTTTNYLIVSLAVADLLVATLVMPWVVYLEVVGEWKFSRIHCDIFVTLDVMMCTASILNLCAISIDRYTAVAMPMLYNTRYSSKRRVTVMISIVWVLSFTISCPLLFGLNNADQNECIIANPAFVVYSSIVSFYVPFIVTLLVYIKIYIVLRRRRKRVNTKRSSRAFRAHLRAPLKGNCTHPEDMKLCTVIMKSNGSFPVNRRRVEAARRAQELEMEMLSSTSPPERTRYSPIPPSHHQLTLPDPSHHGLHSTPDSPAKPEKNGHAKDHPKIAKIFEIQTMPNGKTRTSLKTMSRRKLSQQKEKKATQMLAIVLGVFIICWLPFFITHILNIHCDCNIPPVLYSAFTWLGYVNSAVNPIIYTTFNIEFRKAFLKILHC
Outline: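 Cells plated overnight at 30 C with tetracycline; no-wash calcium dye, 30–90 min RT; 10 s baseline; compound pinned; 180 s read; EC80 dopamine added; another 180 s read.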

| SMILES | inhibition |
| --- | --- |
| COc1ccc(NC(=O)NCCCN2CCc3ccccc3C2)cc1 | active: 42.9% |
| Cc1cc(C)n(-c2nc3ccccc3nc2Nc2ccc(Cl)c(C(=O)OC(C)C)c2)n1 | 2.17% |
| Cc1ccc(NC(=O)CCCn2c(=O)c3cccn3c3ccccc32)cc1C | -8.53% |
| CC(C)CC(=O)n1nc(-c2cccnc2)nc1NCc1ccc(F)cc1 | -21.2% |
| COc1cccc(-c2nnc(SCC(=O)N3CCC(C)CC3)o2)c1 | -10.9% |
| O=C(OCc1cc(=O)n2nc(C3CCCCC3)sc2n1)c1ccccc1Cl | 0.0689% |
| COc1ccc(CC(=O)NCc2ccc3c(c2)CCN3C(C)=O)cc1 | -14% |
| COc1ccc(-c2nc(SCC(=O)Nc3ccc4c(c3)OCCO4)c(-c3ccc(F)cc3)[nH]2)cc1OC | -1.61% |
| CC1=C(C(N)=O)C(c2ccc(F)cc2)n2nc(-c3ccccc3Cl)nc2N1 (stereo not drawn) | 0.982% |
| CCC(CC)C(=O)Nc1ccc2nc(SCC(=O)N3CCc4ccccc43)sc2c1 | 8.12% |
| Cc1ccc(CNC(=O)CN(c2cccc(C)c2C)S(=O)(=O)c2ccccc2)cc1 | -5.38% |
| CCCCNc1ccc(-c2nc(-c3ccco3)no2)cc1[N+](=O)[O-] | -18.8% |
| CCOC(=O)c1c(-c2ccc(C)cc2)csc1NC(=O)c1cc(-c2ccc(C)c(F)c2)on1 | 7.92% |
| C/C(=N\NC(=O)c1c(Cl)c(C)nn1C)c1cccc(NC(=O)c2cccc(F)c2)c1 | active: 49.3% |
| CCOc1ccc(C(=O)Nc2cccc(NC(=O)c3ccc(C(C)(C)C)cc3)c2)cc1Br | 2.1% |
| CC(=O)c1cccc(NC(=O)C2CCCN(C(=O)c3cnn(-c4ccccc4)c3-n3cccc3)C2)c1 (stereo not drawn) | -4.99% |
| Cc1cccc(N2CCN(S(=O)(=O)c3cc(Cl)ccc3Cl)CC2)c1C | -2.61% |
| O=C(CN1C(=O)c2cccnc2Oc2ccc(Cl)cc21)NCCc1ccccc1 | 10% |
| CCCCC(=O)NCc1ccc2c(c1)cc(C)n2C | active: 33.9% |
| Cc1ccc(NC(=O)CN2C(=O)COc3ccc(S(=O)(=O)NC4CCCC4)cc32)cc1Cl | 1.33% |
| CC(C)(C)C(=O)Cn1c(=O)n(-c2ccccc2)c(=O)c2c3c(sc21)CCC3 | -1.1% |
| Cc1cc(NC(=O)CSc2ncc(C(=O)Nc3ccc(Cl)cc3)c(=O)n2C)no1 | -7.04% |
| COc1ccc(S(=O)(=O)c2c(O)c3ccc(C(=O)NCc4ccc(Cl)cc4)cc3[nH]c2=O)cc1 | -5.58% |
| CCOC(=O)C1CCN(C(=O)Cn2ncc3c4ccccc4n(Cc4ccc(F)cc4)c3c2=O)CC1 | -0.274% |

| SMILES | inhibition |
| --- | --- |
| Cc1csc2nc(COc3ccc(NC(=O)COc4ccccc4)cc3)cc(=O)n12 | 5.5% |
| O=C(NC1CCN(Cc2ccccc2)CC1)c1ccccc1OCc1ccccc1 | active: 85.6% |
| Cc1ccc2oc3c(c(=O)c2c1)C(c1ccc([N+](=O)[O-])cc1)N(CCCN1CCOCC1)C3=O (stereo not drawn) | 7.74% |
| CCN(Cc1ccccc1)C(=O)Cn1c(=O)n(-c2cccc(C)c2)c(=O)c2c1c1cc(C)ccc1n2C | 4.63% |
| C=CCc1ccccc1OCc1nc2ccccc2n1CC | 12.3% |
| COc1cc2[nH]c(=O)n(CCC(=O)N3CCN(c4ccc(Cl)cc4)CC3)c(=O)c2cc1OC | -15.9% |
| CCn1nc(-c2ccccc2)c(-c2ccccc2)c(C(=O)Nc2ccccc2C#N)c1=O | -6.45% |
| Cc1cc(C)c(/C=C/c2onc(C)c2S(=O)(=O)N2CCC(C(=O)NCc3ccccc3Cl)CC2)c(C)c1 | -28% |
| Cc1cc(C)c2c(=O)cc(C(=O)Nc3c(C)n(C)n(-c4ccccc4)c3=O)oc2c1 | -8.7% |
| O=C(CCC1N=C2c3ccccc3N=C(SCc3cccc(Cl)c3)N2C1=O)N1CCN(c2ccccc2)CC1 (stereo not drawn) | -1.17% |
| COc1ccc(C(=O)c2c(N)c(-c3nc(-c4ccc(OC)cc4)cs3)c3ccccn23)cc1 | 11.3% |
| COc1ccc(Br)cc1CNC(=O)c1ccc2c(c1)nc1n2CCC(C)C1 (stereo not drawn) | -1.25% |
| O=C(Cn1ccn(-c2ccc(F)c(F)c2)c(=O)c1=O)NCCc1ccccc1 | -13.2% |
| CC(=O)c1cccc(NC(=O)CCc2c(C)nc3c(c(C)nn3-c3ccccc3)c2C)c1 | -5.62% |
| Cc1cc(C)cc(NC(=O)c2cc(S(=O)(=O)N3CCC(C)CC3)cn2C)c1 | 9.9% |
| CCOc1ccc(N(CC(=O)Nc2ccccc2CC)S(=O)(=O)c2c(C)noc2C)cc1 | -10.7% |
| Cc1ccc(Cl)cc1NC(=O)C1CCN(S(=O)(=O)c2cccc3nonc23)CC1 | 12.6% |
| COc1cccc(Cn2c(=O)n(CCc3ccccc3)c(=O)c3c2c2cc(OC)ccc2n3C)c1 | -11.2% |
| COc1ccc(NC(=O)c2c(NC(=O)c3ccncc3)sc3c2CCC(C(C)(C)C)C3)cc1 (stereo not drawn) | -5.88% |
| COc1ccc(C(=O)NNc2ncnc3c2cnn3-c2ccc(C)c(Cl)c2)cc1 | 13.5% |
| Cc1ccc(-c2nn(-c3cccc(F)c3)cc2CN2CCN(c3ccccn3)CC2)o1 | active: 80.2% |
| Cc1cccc(NC(=O)CSc2nc3ccccc3nc2N2CCCCC2)c1C | -3.71% |
| COc1cc(NC(=O)C(Cc2ccccc2)NS(=O)(=O)c2cccc3nsnc23)cc(OC)c1 (stereo not drawn) | -7.1% |
| COc1ccc(OC)c(C2CC(=O)Nc3ccc4ccccc4c32)c1 (stereo not drawn) | 14.3% |

| SMILES | inhibition |
| --- | --- |
| COc1ccc(-c2cn3c(n2)sc2cc(C(=O)NCc4ccccc4)ccc23)cc1 | -15.9% |
| CC1Cc2cc(S(=O)(=O)CCC(=O)Nc3ccc(OC(F)(F)F)cc3)ccc2N1C(=O)C1CC1 (stereo not drawn) | 11% |
| CCN(C(=O)CCS(=O)(=O)c1cc(Br)cc2c1N(C(=O)C1CC1)CC2)c1cccc(C)c1 | 19.2% |
| COc1ccc(Cc2nc3ccc(C(=O)NCCc4ccc(Cl)cc4)cc3o2)cc1 | -19.2% |
| COc1ccc(C2c3cc(OC)c(OC)cc3CC(=O)N2c2cccc(C#N)c2)cc1 (stereo not drawn) | -7.55% |
| CCOCCCn1c(SCC(=O)Nc2ccccc2OC)nc2c(oc3ccccc32)c1=O | 7.22% |
| Cc1ccc(C)c(C(=O)N2CCC(c3nc4c(nnn4Cc4ccccc4)c(=O)[nH]3)CC2)c1 | 15.1% |
| COc1ccccc1C1=Nn2c(nc3sc(C(=O)Nc4ccccc4Cl)c(C)c3c2=O)SC1 | 2.41% |
| CCOc1ccccc1N1CC(c2nc3ccccc3n2CCCCOc2ccccc2)CC1=O (stereo not drawn) | -0.363% |
| CCOc1ccc(NC(=O)c2oc3ccccc3c2NC(=O)C(C)Oc2ccccc2)cc1 (stereo not drawn) | 11.7% |
| CC(C)Cn1c(SCc2cccc(F)c2)nc2ccsc2c1=O | 10% |
| CCOc1ccc(CNC(=O)c2cccc(Nc3nc4ccccc4n4nnnc34)c2)cc1OC | -6.3% |
| CC(=O)c1cc2c(cc1N/C(=N/S(=O)(=O)c1ccc(C)cc1)c1ccc(Cl)cc1)OCO2 | 15.9% |
| Cc1ccc(Cn2ncc3c(N4CCN(C)CC4)ncnc32)cc1 | active: 54.6% |
| Cc1ccc2c(=O)cc(C(=O)Nc3ccc(S(=O)(=O)N4CCCC(C)C4)cc3)oc2c1C (stereo not drawn) | -7.93% |
| COc1ccc(-c2noc(C3CC(=O)N(c4ccc5c(c4)OCCO5)C3)n2)c(OC)c1 (stereo not drawn) | 9.36% |
| COc1cccc(NS(=O)(=O)c2cc(-c3cnc(C4CC4)o3)ccc2C)c1 | -0.731% |
| COc1ccc(CCNC(=O)CSc2cn(CCNC(=O)c3ccc(OC)c(OC)c3)c3ccccc23)cc1OC | 7.45% |
| O=C(O)CSc1nc2ccccc2nc1N1CCCCC1 | 20.6% |
| CCc1ccccc1NC(=O)[C@H](Cc1ccccc1)N1Cc2ccccc2C1=O | -3.84% |
| COC(=O)c1c(NC(=O)/C(C#N)=C/c2ccc(OC)cc2)sc2c1C(C(=O)OC)CC2 (stereo not drawn) | 1.49% |
| CCOc1ccc(Nc2oc(/C=C/c3cc(OC)c(OC)c(OC)c3)nc2C#N)cc1 | 26.7% |
| Cc1nn(Cc2ccc([N+](=O)[O-])cc2)c(=O)n1-c1c(F)cccc1F | active: 36.9% |
| CCOc1ccc(NC(=O)CSc2nc3ccccc3c(=O)n2CCC(=O)NC2CCCCC2)cc1 | -7.93% |

| SMILES | inhibition |
| --- | --- |
| COc1ccc(NC(=O)CN(C)S(=O)(=O)c2cnc[nH]2)cc1 | -0.3% |
| COc1cc(C(=O)NCCSc2c(C)[nH]c3ccccc23)cc(OC)c1OC | -3.73% |
| O=C(COC(=O)c1cc(-c2cccs2)nc2ccccc12)c1ccc(Cl)cc1 | -20.3% |
| CC1CN(CCn2cnc3c(N)ncnc32)CC(C)O1 (stereo not drawn) | active: 45.8% |
| O=C(NC1CC(=O)N(c2ccc(Cl)cc2)C1)C1CCCCC1 (stereo not drawn) | -2.5% |
| CCOc1cccc(C2c3c(oc4cc(C)c(C)cc4c3=O)C(=O)N2c2nc(C)c(C)s2)c1 (stereo not drawn) | -0.362% |
| Cc1ccc(NC(=O)CN2C(=O)C(C)(C)c3cc(S(=O)(=O)N4CCCCC4)ccc32)c(Br)c1 | -3.31% |
| COc1cccc(-c2cc(C(=O)Nc3cccnc3Cl)no2)c1 | -5.5% |
| COc1ccc(N2C(=O)CCSC23C(=O)N(Cc2ccc(F)cc2)c2ccccc23)cc1Cl (stereo not drawn) | -7.13% |
| COc1cccc(NC(=O)N2CCC(CN3CCOCC3)CC2)c1 | -9.49% |
| CCC(C)NC(=O)Cn1cnc2sc(C)c(S(=O)(=O)N3CCN(c4ccccc4OC)CC3)c2c1=O (stereo not drawn) | 19.5% |
| Cc1c(C(=O)Nc2cccc(Cl)c2)oc2ccc(S(=O)(=O)N3CCOCC3)cc12 | -9.86% |
| CCc1ccccc1NC(=O)Cn1c(=O)ccc2cc(S(=O)(=O)N3CCC(C)CC3)ccc21 | 13.2% |
| CCC(C)(C)NC(=O)CN(Cc1ccc2c(c1)OCO2)C(=O)CCC(=O)Nc1nccs1 | active: 40.8% |
| Cc1ccc(CCNC(=O)CN2N=C(c3ccc(C)cc3)CCC2=O)cc1 | -3.7% |
| Cc1cccc(N2CCN(S(=O)(=O)c3c(C)nc4scc(C)n4c3=O)CC2C)c1 (stereo not drawn) | 7.96% |
| CSc1ccc(/C=C/C(=O)OCC(=O)N2CCN(S(=O)(=O)c3ccc(C)cc3C)CC2)cc1 | active: 40.6% |
| CCOC(=O)c1sc(NC(=O)c2nc3nc(C)cc(C(F)F)n3n2)c(C(=O)OC)c1C | -3.36% |
| CC1CCN(C(=O)c2ccc(NC(=O)c3nsc4ccccc34)cc2)CC1 | -8.88% |
| CCC(=O)N1CCc2cc(CNS(=O)(=O)c3cc(Cl)ccc3OC)ccc21 | -8.2% |
| COc1ccc(Br)cc1CNC(=O)CCSCc1ccc(Cl)cc1 | 7.9% |
